The source of these data is US10329243B2, “Biphenyl derivative and uses thereof” (XI'AN LIBANG PHARMACEUTICAL CO., LTD, priority 2015, dated 2019).

The test system of assay [1] is rats with cerebral ischemic reperfusion injury. Briefly: Neurological impairment score (Longa 5-grade), cerebral ischemic reperfusion MCAO model. The format is in vivo, SD rats. The conditions noted are these: ischemic reperfusion rat model; edaravone 3 mg/kg. The protocol: 336 healthy male SD rats weighing 250-300 g, provided by the Experimental Animal Center of the Fourth Military Medical University, were randomly divided into 14 groups: the sham operation group, the ischemic reperfusion group, and Examples 1-12 groups (i.e., the Example groups).
Rats were intraperitoneally injected with 10% chloral hydrate 350 mg/kg after anesthesia and opened up at the center of the neck in accordance with the Zea Longa modified method. The right common carotid artery was separated, and the right external carotid artery branches was ligated. A small opening was made at the distal end of the external carotid artery, and a previously prepared thread was inserted through the common carotid artery and the external carotid artery bifurcation into the internal carotid artery, till the anterior end of the middle cerebral artery, with an immersed depth of 18 to 19 mm. The thread was then secured, and the wound was sutured layer by layer. After the operation, the rats were placed in a clean incubator to wake up. […] The sham operation group, the ischemic reperfusion group, and the Example groups were prepared strictly according to the requirements of the cerebral ischemic reperfusion model, while in the sham operation group the thread was put only into the external carotid artery. […]
The neurological impairment was scored in each group 24 h after reperfusion. […]

For assay [2], the system named is rats with permanent cerebral ischemia injury. Briefly: Neurological impairment score (Longa 5-grade), permanent cerebral ischemia model. The format is in vivo, SD rats. The conditions noted are these: edaravone 3 mg/kg. The protocol:
336 healthy male SD rats weighing 250-300 g, provided by the Experimental Animal Center of the Fourth Military Medical University, were randomly divided into […]: the sham operation group, the permanent cerebral ischemia model group, and Examples 1-12 groups. The biphenyl derivatives used in each of the Examples 1-12 groups were the same as those in Example 13.
Rats were intraperitoneally injected with 10% chloral hydrate 350 mg/kg after anesthesia and opened up at the center of the neck in accordance with the Zea Longa modified method. The right common carotid artery was separated, and the right external carotid artery branches was ligated. A small opening was made at the distal end of the external carotid artery, and a previously prepared thread was inserted through the common carotid artery and the external carotid artery bifurcation into the internal carotid artery, till the anterior end of the middle cerebral artery, with an immersed depth of 18 to 19 mm. The thread was then secured, and the wound was sutured layer by layer. After the operation, the rats were placed in a clean incubator to wake up. […]
The neurological impairment was scored in each group 24 h after the embolism. […]

For `CC1=NN(c2ccccc2)C(=O)C1` [Edaravone injection, edaravone, reference compound], the Neurological impairment score in assay [1] is given as 2.6; in assay [2], 2.8.
